# Assay results as given in patent US20090162366A1.
# B1: N547 (antibody, V domains shown)
# VH: [letters of about 100 residues left out]HLRYFDWLSDYWGQGTLVTVSS
# VL: QSVLTQPPSMSAAPGQKVTISCSGSSSNIGNNYISWYQQLPGTAPKVLIYDNNKRPSGIPDRFSGSKSGTSATLGITGLQTGDEADYYCGSWDSSLSAGVFGTGTKVTVLG
# How the values were obtained:
# [1] = target: M2 peptide (influenza A virus, A/Hong Kong/1/68 (H3N2)); experiment: ELISA on peptide, Ab 10 µg/ml
# [2] = target: M2-BSA conjugate (influenza A virus, A/Hong Kong/1/68 (H3N2)); experiment: peptide-BSA ELISA (++ EC50<10^-9M; + 10^-9M<EC50<10^-8M)
binder,measurement,setting,value
B1,ELISA(OD450),[1],0.51 OD450
same,EC50,[2],< 1 nM
